In PubChem BioAssay AID485344 (National Center for Advancing Translational Sciences (NCATS), 2010) one finds inhibition data, which are given here for 61 molecules.

A word on the inhibition: it is the change of the read-out against control, counted positive when it falls.

The structures appear in SMILES notation. Screen size: about 340,000 compounds; about 6,900 (2%) were called active. No stated cut-off is given here; in the data, active means inhibition above about 30%; inactive means below that, where a call was filed. Only a part is listed here, and it is no random draw. The source gives no active or inactive call for entries shown without one.

The experiment has as its target D(2) dopamine receptor (Homo sapiens) (UniProt P14416). Put plainly: HTS Assay for Allosteric Antagonists of the Human D2 Dopamine Receptor: Primary Screen for Antagonists. Further: 0% is about no effect. The following applies: HEK293 TREx D2 cells, calcium flux, dopamine EC80; at 10 µM; stronger effect = higher value. The method, boiled down: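 Cells plated overnight at 30 C with tetracycline; no-wash calcium dye, 30–90 min RT; 10 s baseline; compound pinned; 180 s read; EC80 dopamine added; another 180 s read.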
UniProt P14416, sequence (P14416 whole entry, looked up): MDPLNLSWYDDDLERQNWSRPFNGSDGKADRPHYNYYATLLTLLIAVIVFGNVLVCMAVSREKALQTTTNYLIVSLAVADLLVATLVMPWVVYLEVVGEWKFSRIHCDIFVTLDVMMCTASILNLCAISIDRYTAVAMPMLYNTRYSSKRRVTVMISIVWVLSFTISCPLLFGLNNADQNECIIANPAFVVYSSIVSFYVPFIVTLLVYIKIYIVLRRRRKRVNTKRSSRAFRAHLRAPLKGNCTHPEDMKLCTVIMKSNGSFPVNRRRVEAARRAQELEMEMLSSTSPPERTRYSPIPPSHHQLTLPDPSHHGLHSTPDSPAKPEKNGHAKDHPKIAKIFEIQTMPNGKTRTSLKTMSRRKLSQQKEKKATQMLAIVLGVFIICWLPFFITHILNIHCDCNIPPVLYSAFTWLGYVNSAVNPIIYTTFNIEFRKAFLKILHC
(A change in cytosolic calcium serves as a functional read-out for many receptors and channels.)
On to `COc1ccc(/C=C(/NC(=O)c2cccc([N+](=O)[O-])c2)C(=O)O)cc1OC`, for which the inhibition was active: 55.6%.
The value for `CC1CCN(C(=O)C(C)Sc2nc(-c3ccccc3)cc(C(F)(F)F)n2)CC1` (stereo unspecified) was 0.869%.
As for `COc1ccc(OC)c(NC(=O)c2c(C)oc3ncnc(N4CCOCC4)c23)c1`, the inhibition was 1.99%.
As for `O=C(Cn1c(=O)n2nc(-c3cccc(F)c3)nc2c2ccccc21)N1CCN(c2ccccc2F)CC1`, the inhibition came out at 18.7%.
As for `O=C(c1cccc(Cl)c1)N1CCC(c2nc3ccccc3o2)CC1`, the figure is -11.4%.
In the case of `CC(C)CCNC(=O)C1CCC(CNS(=O)(=O)c2ccc(Cl)cc2)CC1` (stereo unspecified), the inhibition was active: 34.2%.
Turning to `Cc1ccc(C(=O)NC2(C(F)(F)F)N=C(c3ccccc3)N(C3CCCCC3)C2=O)cc1` (stereo unspecified), the inhibition was -9.14%.
As to `COc1ccc(CNC(=O)c2cn(-c3cccc(OC)c3)c(=O)c3ccccc23)cc1`, the inhibition is -11.7%.
The value for `COc1ccc(C(=O)NCC(c2ccc3c(c2)OCO3)N2CCOCC2)cc1OC` (stereo unspecified) was 9.78%; that for `CCOC(=O)c1c(C)c(-c2ccccc2)n(CC(=O)Nc2cccc(C)c2C)c1C` was -14.6%; that for `CC(=O)Nc1ccc(Nc2ncnc3sc4c(c23)CCCC4)cc1` was 10.8%.
As for `COc1ccc(Br)cc1S(=O)(=O)n1c([N+](=O)[O-])cnc1C`, the figure is active: 34%; as for `CCn1c(CC2C(=O)N(C)c3ccc(Br)cc32)nc2ccccc2c1=O` (stereo unspecified), -19.1%; as for `Cc1cccc(C(=O)N2CCc3cc(CNS(=O)(=O)c4cccs4)ccc32)c1`, -3.06%.
The value for `Cc1ccc2nc(N(Cc3cccnc3)C(=O)CCOc3ccccc3)sc2c1` was 12.7%; that for `CCc1cc2c(cc3c(=O)n(CC(=O)NCCOC)nc(CC)n32)s1` was 4.73%.
`Cc1ccc(C)c(CNC(=O)c2sc3ncnc(N(C)C4CCCCC4)c3c2C)c1`: the inhibition stood at 7.4%.
As for `COc1ccc(-c2cc3ccc(O)c(CN4CCCC4)c3oc2=O)cc1OC`, the figure is -6.18%.
The value for `COc1ccc(NC(=O)C2CCCO2)cc1Cl` (stereo unspecified) was active: 31.1%.
As for `CCC1CN(C(=O)N2CCC(C(=O)N3CCN(c4cc(C)ccc4C)CC3)CC2)c2ccccc2O1` (stereo unspecified), the figure is -2.07%.
As for `Cc1cc(F)ccc1NC(=O)CCSc1nc(-c2ccco2)cc(C(F)(F)F)n1`, the inhibition stood at 6.43%.
The value for `CCC(Sc1nnc2c3ccccc3n(C)c2n1)C(=O)Nc1nnc(C(C)C)s1` (stereo unspecified) was -5.46%; that for `CCOC(=O)c1ccc(NC(=O)Cn2cnc3sc(C(=O)OCC)c(C)c3c2=O)cc1` was 5.65%.
On to `CCc1ccc(NC(=O)CSc2nc3c([nH]c4ccccc43)c(=O)n2-c2cccc(OC)c2)cc1`, for which the inhibition was 0.729%.
Turning to `COc1cc(C)ccc1OCCSc1nc2ccc(NC(C)=O)cc2s1`, the inhibition was 2.87%.
Regarding `CCCCCn1c(=O)c2c(nc3n2CCN3c2ccc(Br)cc2)n(C)c1=O`, the inhibition is -5.68%.
As for `COc1cccc(-c2nnc3sc(CN4CCCCC4)cn23)c1`, the figure is 0.541%; as for `CCC1CCCCN1C(=O)Cn1c(=O)n(CCCCCC(=O)NCc2ccccc2Cl)c(=O)c2sccc21` (stereo unspecified), 5.8%; as for `Cc1cccc(CCNC(=O)c2c[nH]c3ccc(S(=O)(=O)Nc4ccccc4F)cc3c2=O)c1`, 14.9%.
With `Fc1ccccc1Nc1ncnc2c1nc1n2CCCCC1`, the inhibition was -8.45%.
As for `O=C(NCCc1ccc(Cl)cc1)c1ccc2c(c1)N(Cc1cccc(Cl)c1)C(=O)c1ccccc1S2(=O)=O`, the figure is -12.4%; as for `COc1cc(N)c(Cl)cc1C(=O)OCC(=O)c1cccs1`, active: 32.7%.
For `Cn1cccc1C(=O)OCC(=O)N1CC(=O)Nc2ccccc21`, the inhibition was active: 33.7%.
As for `COC(=O)c1ccc(NC(=O)CC2C(=O)N(c3cccc(C)c3)C(=O)N2C2CCCC2)cc1` (stereo unspecified), the figure is 4.35%; as for `Cc1cc(=O)oc2c3c(ccc12)OCN(Cc1ccc(Cl)cc1)C3`, -27.3%.
In the case of `O=C(NCCC(=O)N1CCC2(CC1)NCCc1[nH]cnc12)c1ccc(Br)cc1`, the inhibition is active: 32%.
Consider `O=C(CCn1ccc2cc(S(=O)(=O)N3CCCC3)ccc21)NCc1ccccc1Cl`, for which the inhibition is -2.97%.
On to `CCc1nn2c(=O)cc(COC(=O)c3ccccc3NC(=O)c3cccs3)nc2s1`, for which the inhibition was 4.48%.
Regarding `CCn1nc(C)c2c(-c3ccccc3)cc(=O)n(C(C)C(=O)NCCc3ccccc3)c21` (stereo unspecified), the inhibition turned out to be 9.13%.
Consider `COc1ccccc1-c1nc(SCC(=O)Nc2ccc(C)c(C)c2)n[nH]1`, for which the inhibition came to 6.43%.
The value for `CSc1ccc(CCNC(=O)C2CCN(c3ncnc4c3nc3n4CCCCC3)CC2)cc1` was 24.3%; that for `Cc1sc2ncn(CC(=O)N(C)c3cccc(C(F)(F)F)c3)c(=O)c2c1S(=O)(=O)N1CCN(c2ncccn2)CC1` was 3.01%.
As for `CCN(CC)C(=O)COc1ccc(-c2nnc(Nc3ccc(OC)c(C(=O)NC)c3)c3ccccc23)cc1`, the figure is -14.3%; as for `C=C(C)C1CC=C(CN2CCC(C(=O)OCC)CC2)CC1` (stereo unspecified), active: 72.3%.
Take `COc1cc(NC(=O)CCNC(=O)Cn2cnc3ccccc3c2=O)cc(OC)c1OC`: the inhibition is 1.33%.
As to `CCCc1cc(N2CCN(c3ccc(OC)cc3)CC2)n2cnnc2n1`, the inhibition is -24.4%.
The value for `COc1ccc(CCn2c(=O)c3cccnc3n(CC(=O)Nc3c(C)cc(C)cc3C)c2=O)cc1OC` was -5.17%; that for `Cc1cc(C)c(NC(=O)Nc2csc3c2CCCC3)c(C)c1` was -2.97%.
As for `O=C(CCCCCn1c(=O)[nH]c2ccccc2c1=O)NCc1ccc(Cl)cc1`, the figure is 14.4%.
As for `COc1cc(OC)cc(C(=O)N2CCN(c3ccccc3F)CC2)c1`, the figure is active: 31%.
As for `CC(C)(C)c1ccc(C(=O)N2CCN(Cc3cc(=O)n4nc(-c5ccccc5F)sc4n3)CC2)cc1`, the inhibition is -13.4%.
For `Cc1ccc(NC(=O)C2CCC(CNS(=O)(=O)c3ccc4c(c3)C(C)(C)C(=O)N4C)CC2)cc1` (stereo unspecified), the inhibition is -15.4%.
As for `CCOc1ccc(CNC(=O)Cc2ccc(NC(=O)N3CCCCc4ccccc43)cc2)cc1OC`, the figure is 0.241%; as for `Cc1[nH]n2c(=O)c3c(nc2c1-c1ccccc1)CCC3`, active: 35.9%; as for `COc1cc(OC)c(NC(=O)Cn2cnc3nc4c(cc3c2=O)CCCC4)cc1Cl`, 7.37%.
Turning to `Clc1ccc(-c2nnn3c2nc(NCc2ccc4c(c2)OCO4)c2ccccc23)cc1`, the inhibition was -1.66%.
Take `Cc1cc(=O)oc2cc(OCC(=O)Nc3c(C(C)C)cccc3C(C)C)ccc12`: the inhibition is 2.73%.
As for `O=C(CC(NCc1cccnc1)C(=O)O)Nc1ccc(O)cc1` (stereo unspecified), the figure is 23%.
As for `CCOc1ccc(CCNC(=O)C2CCN(Cc3nc(-c4ccccc4C)oc3C)CC2)cc1OCC`, the figure is -20.2%; as for `CCN(C(=O)CSc1nc2ccccc2n1CC(=O)N1CCCC(C)C1)c1ccccc1` (stereo unspecified), 10.6%; as for `Fc1ccc(Nc2c(-c3ccco3)nc3ccccn23)cc1`, -0.117%.
